Assay results as given in patent publication US20190016816A1 (APTEVO RESEARCH AND DEVELOPMENT, published 2019).

B1: ALG.APV-179 (bispecific antibody)
chain: EVQLLESGGGLVQPGGSLRLSCAASGFTFSHGSMYWVRQAPGKGLEWVSSISSGSGSTYYADSVKGRFTISHDNSKNTLYLQMNSLRAEDTAVYYCARSSYYGSYYSIDYWGQGTLVTVSSGGGGSGGGGSGGGGSGGGGSDIQMTQSPSSLSASVGDRVTITCRASQSISSYLNWYQQKPGKAPKLLIYAASSLQSGVPSRFSGSGSGTDFTLTISSLQPEDFATYYCQQYYDNLPTFGQGTKLEIKSSEPKSSDKTHTCPPCPAPEAAGAPSVFLFPPKPKDTLMISRTPEVTCVVVDVSHEDPEVKFNWYVDGVEVHNAKTKPREEQYNSTYRVVSVLTVLHQDWLNGKEYKCAVSNKALPAPIEKTISKAKGQPREPQVYTLPPSRDELTKNQVSLTCLVKGFYPSDIAVEWESNGQPENNYKTTPPVLDSDGSFFLYSKLTVDKSRWQQGNVFSCSVMHEALHNHYTQKSLSLSPGSGGGGSGGGGSGGGGSPS[letters of about 100 residues left out]YYGGYYSAWMDYWGQGTLVTVSSGGGGSGGGGSGGGGSGGGGSDIQMTQSPSSLSASVGDRVTITCRASQSISSFLNWYQQKPGKAPKLLIYAASSLQSGVPSRFSGSGSGTDFTLTISSLQPEDSATYYCQQTYGYLHTFGQGTKLEIKR
notes: Optimized ADAPTIR scFv-Fc-scFv homodimer
B2: ALG.APV-209 (bispecific antibody)
chain: EVQLLESGGGLVQPGGSLRLSCAASGFTFSHGSMYWVRQAPGKGLEWVSSISSGSGSTYYADSVKGRFTISHDNSKNTLYLQMNSLRAEDTAVYYCARSSYYGSYYSIDYWGQGTLVTVSSGGGGSGGGGSGGGGSGGGGSDIQMTQSPSSLSASVGDRVTITCRASQSISSYLNWYQQKPGKAPKLLIYAASSLQSGVPSRFSGSGSGTDFTLTISSLQPEDFATYYCQQYYDNLPTFGQGTKLEIKEPKSSDKTHTCPPCPAPEAAGAPSVFLFPPKPKDTLMISRTPEVTCVVVDVSHEDPEVKFNWYVDGVEVHNAKTKPREEQYNSTYRVVSVLTVLHQDWLNGKEYKCAVSNKALPAPIEKTISKAKGQPREPQVYTLPPSRDELTKNQVSLTCLVKGFYPSDIAVEWESNGQPENNYKTTPPVLDSDGSFFLYSKLTVDKSRWQQGNVFSCSVMHEALHNHYTQKSLSLSPGSGGGGSGGGGSGGGGSPS[letters of about 100 residues left out]YYGGYYSAWMDYWGQGTLVTVSSGGGGSGGGGSGGGGSGGGGSDIQMTQSPSSLSASVGDRVTITCRASQSISSFLNWYQQKPGKAPKLLIYAASSLQSGVPSRFSGSGSGTDFTLTISSLQPEDSATYYCQQTYGYLHTFGQGTKLEIKR
notes: Optimized ADAPTIR scFv-Fc-scFv homodimer, no stabilizing disulfide in the 1210 scFv
B3: ALG.APV-208 (bispecific antibody)
chain: EVQLLESGGGLVQPGGSLRLSCAASGFTFSHGSMYWVRQAPGKGLEWVSSISSGSGSTYYADSVKGRFTISHDNSKNTLYLQMNSLRAEDTAVYYCARSSYYGSYYSIDYWGQGTLVTVSSGGGGSGGGGSGGGGSGGGGSDIQMTQSPSSLSASVGDRVTITCRASQSISSYLNWYQQKPGKAPKLLIYAASSLQSGVPSRFSGSGSGTDFTLTISSLQPEDFATYYCQQYYDNLPTFGQGTKLEIKEPKSSDKTHTCPPCPAPEAAGAPSVFLFPPKPKDTLMISRTPEVTCVVVDVSHEDPEVKFNWYVDGVEVHNAKTKPREEQYNSTYRVVSVLTVLHQDWLNGKEYKCAVSNKALPAPIEKTISKAKGQPREPQVYTLPPSRDELTKNQVSLTCLVKGFYPSDIAVEWESNGQPENNYKTTPPVLDSDGSFFLYSKLTVDKSRWQQGNVFSCSVMHEALHNHYTQKSLSLSPGSGGGGSGGGGSGGGGSPS[letters of about 100 residues left out]YYGGYYSAWMDYWGQGTLVTVSSGGGGSGGGGSGGGGSGGGGSDIQMTQSPSSLSASVGDRVTITCRASQSISSYLNWYQQKPGKAPKLLIYAASSLQSGVPSRFSGSGSGTDFTLTISSLQPEDSATYYCQQTYGYLHTFGQGTKLEIKR
notes: as for B1
B4: ALG.APV-010 (bispecific antibody)
chain: EVQLLESGGGLVQPGGSLRLSCAASGFTFSYGSMYWVRQAPGKGLEWVSSISSGSGSTYYADSVKGRFTISRDNSKNTLYLQMNSLRAEDTAVYYCARSSYYGSYYSIDYWGQGTLVTVSSGGGGSGGGGSGGGGSGGGGSDIQMTQSPSSLSASVGDRVTITCRASQSISSYLNWYQQKPGKAPKLLIYAASSLQSGVPSRFSGSGSGTDFTLTISSLQPEDFATYYCQQYYDNLPTFGQGTKLEIKSSSEPKSSDKTHTCPPCPAPEAAGAPSVFLFPPKPKDTLMISRTPEVTCVVVDVSHEDPEVKFNWYVDGVEVHNAKTKPREEQYNSTYRVVSVLTVLHQDWLNGKEYKCAVSNKALPAPIEKTISKAKGQPREPQVYTLPPSRDELTKNQVSLTCLVKGFYPSDIAVEWESNGQPENNYKTTPPVLDSDGSFFLYSKLTVDKSRWQQGNVFSCSVMHEALHNHYTQKSLSLSPGSGGGGSGGGGSGGGGSPSDIQMTQSPSSLSASVGDRVTITCRASQSISSYLNWYQQKPGKAPKLLIYAASSLQSGVPSRFSGSGSGTDFTLTISSLQPEDFATYYCQQTYGYLHTFGQGTKLEIKGGGGSGGGGSGGGGSGGGGS[letters of about 100 residues left out]YYGGYYSAWMDYWGQGTLVTVSS
notes: ADAPTIR scFv-Fc-scFv homodimer, 1210 scFv in VL-VH order; also called 1618 VHVL -Fc-1210 VLVH

Key:
[1] = molecular target: T1, cynomolgus 5T4 on cells (cynomolgus macaque, UniProt Q4R8Y9 35-420); assay: flow cytometry, CHO-K1/cynomolgus 5T4 transfectants, labelled anti-human IgG secondary, MFI (mean)
T1 construct: whole, on cells; also called CHO-K1/cynomolgus 5T4 transfectants
T1 sequence (looked up): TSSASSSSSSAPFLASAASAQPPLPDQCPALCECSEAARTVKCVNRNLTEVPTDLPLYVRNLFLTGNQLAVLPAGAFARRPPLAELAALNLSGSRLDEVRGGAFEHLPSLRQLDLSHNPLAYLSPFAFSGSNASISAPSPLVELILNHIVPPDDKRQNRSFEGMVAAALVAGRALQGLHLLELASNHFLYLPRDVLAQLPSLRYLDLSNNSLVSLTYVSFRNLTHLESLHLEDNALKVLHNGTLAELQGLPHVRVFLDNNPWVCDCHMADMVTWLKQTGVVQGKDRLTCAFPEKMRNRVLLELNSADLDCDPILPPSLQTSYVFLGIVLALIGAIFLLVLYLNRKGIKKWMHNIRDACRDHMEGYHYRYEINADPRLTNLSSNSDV
Procedure: (§1) Binding studies were performed by standard flow cytometry-based staining procedures two cell lines expressing 5T4:CHO-K1 cells (obtained from Alligator) transduced with human or cynomolgus macaque 5T4 and SKOV-3 human ovarian adenocarcinoma cells which express (human) 5T4. All labeling and washes were performed in U-bottom 96-well plates in saline buffer with 0.1% BSA and 2 mM EDTA. Cell were plated at approximately 100,000 cells per well and incubated with a range of 100 nM to 0.05 nM concentrations of test molecules in […], for 30 minutes on ice. Cells were washed three times then incubated for another 30 min on ice with fluorescently-labeled secondary polyclonal antibody, F(ab′)² goat anti-human IgG (Jackson ImmunoResearch Laboratories). The cells were then washed twice and the samples acquired in a BD LSRII or a Symphony A3 flow cytometer. The sample files were analyzed using FlowJo software; the mean fluorescence intensity (MFI-mean) or median fluorescence intensity (MFI-median) of the live population of cells in each well was calculated after gating on live cells (forward vs side scatter). Nonlinear regression analysis to determine EC₅₀ values was performed in GraphPad Prism 6® graphing and statistics software.

[2] = molecular target: T2, human 5T4 on cells (human, UniProt Q13641 32-420); assay: flow cytometry, CHO-K1 cells expressing human 5T4, labelled anti-human IgG secondary, MFI (mean)
T2 construct: also called TPBG; hu5T4
T2 sequence: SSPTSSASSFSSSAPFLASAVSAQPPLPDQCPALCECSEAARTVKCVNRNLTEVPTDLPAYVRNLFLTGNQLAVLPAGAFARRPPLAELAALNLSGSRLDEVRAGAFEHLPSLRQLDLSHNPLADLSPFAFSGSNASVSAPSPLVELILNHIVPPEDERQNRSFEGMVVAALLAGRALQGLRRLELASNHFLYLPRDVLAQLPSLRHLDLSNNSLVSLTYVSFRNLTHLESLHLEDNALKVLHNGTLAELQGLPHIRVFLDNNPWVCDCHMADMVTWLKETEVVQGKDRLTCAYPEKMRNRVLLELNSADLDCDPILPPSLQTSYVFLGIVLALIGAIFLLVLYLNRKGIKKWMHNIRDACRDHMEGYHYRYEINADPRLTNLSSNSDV
Procedure: as §1

[3] = molecular target: T3, cynomolgus CD137 on cells (cynomolgus macaque, UniProt A9YYE7 24-254); assay: flow cytometry, CHO-K1 cells expressing cynomolgus CD137, PE anti-human IgG Fc secondary, MFI (median)
T3 construct: whole, on cells; also called CHO-K1/cynomolgus CD137 cell line; cynomolgus monkey CD137 on CD3-stimulated primary CD8 T cells
T3 sequence (A9YYE7 entry or part of it): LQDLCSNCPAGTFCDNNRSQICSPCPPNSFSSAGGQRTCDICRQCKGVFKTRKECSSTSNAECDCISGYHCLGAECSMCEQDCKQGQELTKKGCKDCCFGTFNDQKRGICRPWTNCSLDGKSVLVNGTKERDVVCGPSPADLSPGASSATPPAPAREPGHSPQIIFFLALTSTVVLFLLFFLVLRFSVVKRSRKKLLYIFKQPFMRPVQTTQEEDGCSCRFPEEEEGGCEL
Procedure: (§2) Binding studies on CHO-K1 cells lines expressing CD137 were performed by standard flow cytometry-based staining procedures. CHO-K1 cells (generated by Alligator) were transfected with human or cynomolgus macaque CD137. A typical experiment would label approximately 100,000 cells per well, in 96-well plates, with a range of 100 nM to 0.05 nM binding molecule in 50 μL of saline buffer with 2% BSA and 2 mM EDTA, for 30 min on ice, followed by washes and incubation with PE-labeled secondary antibody, goat anti-human IgG Fcγ ([…]), for 20 minutes on ice. Signal from bound molecules was detected using a LSR-II™ or a Symphony A3 flow cytometer (BD Biosciences) and analyzed by FlowJo flow cytometry analysis software. Median fluorescence intensity (MFI-median) of bound molecules on live cells was determined after exclusion of doublets cells. Nonlinear regression analysis to determine EC₅₀ values was performed in GraphPad Prism 6® graphing and statistics software.

[4] = molecular target: T1, cynomolgus 5T4 on cells; assay: flow cytometry, CHO-K1 cells expressing cynomolgus 5T4, labelled anti-human IgG secondary, MFI (median)
Procedure: as §1

[5] = molecular target: T4, human CD137 on cells (human, UniProt Q07011 24-255); assay: flow cytometry, CHO-K1/human CD137 cells, PE anti-human IgG Fc secondary, MFI (mean)
T4 construct: also called 4-1BB; TNFRSF9 (CHO-K1/human CD137 cells)
Procedure: as §2, with “Median fluorescence intensity (MFI-median) of bound molecules on live cells was determined after exclusion of doublets cells.” left out

[6] = molecular target: T4, human CD137 on cells; assay: flow cytometry, CHO-K1 cells expressing human CD137, PE anti-human IgG Fc secondary, MFI (median)
T4 sequence (Q07011 24-255 limits assumed): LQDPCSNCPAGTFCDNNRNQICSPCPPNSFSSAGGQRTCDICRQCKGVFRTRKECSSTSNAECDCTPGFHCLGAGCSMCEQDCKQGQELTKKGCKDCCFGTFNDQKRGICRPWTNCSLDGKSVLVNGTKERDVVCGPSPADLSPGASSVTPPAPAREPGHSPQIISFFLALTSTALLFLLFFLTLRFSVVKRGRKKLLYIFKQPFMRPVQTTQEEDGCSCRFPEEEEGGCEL
Procedure: as §2

[7] = molecular target: T4, human CD137 on cells; assay: cell-based or functional assay
[8] = molecular target: T2, human 5T4 on cells; assay: flow cytometry, murine CT26 cells expressing human 5T4, labelled anti-human IgG secondary, MFI (mean)
[9] = molecular target: T2, human 5T4 on cells; assay: flow cytometry, SKOV-3 cells (endogenous human 5T4), labelled anti-human IgG secondary, MFI (mean)
Procedure: as §1

[10] = molecular target: T4, human CD137 on cells; assay: cell-based or functional assay; remark: listed apart in the source
[11] = molecular target: T2, human 5T4 on cells; assay: flow cytometry on human 5T4-expressing cells

Row | Binder | EC50 [1] [nM] | Maximum MFI [1] | EC50 [2] [nM] | Maximum MFI [2] | EC50 [3] [nM] | EC50 [4] [nM] | Maximum MFI [4] | EC50 [5] [nM] | Maximum MFI [5] | EC50 [6] [nM] | CD137 reporter assay with HCC1143 cells, EC50 against ALG.APV-004 [7] [fold lower EC50] | CD137 reporter assay with HCC1143 cells, EC50 against ALG.APV-006 and ALG.APV-004 [7] [fold lower EC50] | EC50 [8] [nM] | Maximum MFI [8] | EC50 [9] [nM] | Maximum MFI [9] | CD137 Reporter Assay EC50 [10] [nM] | EC50 [11] [nM]
1 | B1 | 10.1 | 26800 | 10.1 | 14200 | 1.7 | 51 | 31100 | 0.39 | 8210 | 0.9 | 10 | ≤ 6 | 2.5 | 1740 | 15.8 | 1780 |  | 
2 | B2 | 8.9 | 25400 |  |  |  |  |  | 0.56 | 8630 |  | 10 |  | 2.9 | 1710 |  |  |  | 
3 | B3 | 7.4 | 24900 |  |  |  |  |  | 0.6 | 8670 |  | 10 |  | 2.1 | 1460 |  |  |  | 
4 | B4 |  |  |  |  |  |  |  |  |  |  |  |  |  |  |  |  | 2.6 | 50.9
